{"source": "PubChem BioAssay AID540317", "about": "(National Center for Advancing Translational Sciences (NCATS), 2011)", "note": "About 2,200 (0.56%) of roughly 390,000 compounds were called active. The shares of active, inactive and inconclusive entries below differ from those in the screen. Calls follow the shape of the dose curve; as a rule, active = well fitted inhibition curve with a large enough effect; inconclusive = small, poorly fitted or top-dose-only effect; inactive = no such curve, though single readings can be large or run the other way. Where the call is inconclusive, the potency comes from a doubtful curve fit. Potency is read from the fitted curve at half-maximal effect; tags tell the direction and shape of the fitted curve.", "data": [{"target": "Chromobox protein homolog 1 (Homo sapiens) (UniProt P83916)", "sequence (P83916 whole entry, looked up)": "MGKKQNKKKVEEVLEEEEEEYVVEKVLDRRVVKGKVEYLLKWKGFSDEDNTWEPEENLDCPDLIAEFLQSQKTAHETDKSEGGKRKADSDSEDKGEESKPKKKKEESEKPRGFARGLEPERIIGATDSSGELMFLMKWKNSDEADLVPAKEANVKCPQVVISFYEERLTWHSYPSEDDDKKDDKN", "test": "HTS for Inhibitors of HP1-beta Chromodomain Interactions with Methylated Histone Tails; also: nearly all actives have a fitted effect of over 70% in size", "conditions": "AlphaScreen HP1-beta / biotin-H3K9me3 peptide binding; series mostly up to 114 µM", "how_it_was_run": "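AlphaScreen: HP1-beta (50 nM) preformed 30 min with biotin-H3(1-18)K9me3 peptide (50 nM) in PBS pH 7.4, 0.01% Tween-20. Compound added for 30 min at RT, then streptavidin donor/nickel chelate acceptor beads (10 ug/mL) for 30 min.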", "values": [{"smiles": "CCOc1cc(/C=N/Nc2cccc(C(=O)O)c2)ccc1OC(=O)c1ccccc1", "Potency": "inconclusive: 50.1 µM [inhibitor, partial curve, poor fit]"}, {"smiles": "C=CCNC(=O)c1sc(=S)n(-c2ccc(C(=O)OCC)cc2)c1N", "Potency": "inconclusive: 44.7 µM [inhibitor, partial curve, poor fit]"}, {"smiles": "O=c1c2ccccc2nc(-c2ccc(Cl)cc2Cl)n1O", "Potency": "inactive"}, {"smiles": "COc1cc(CN2CCN(S(=O)(=O)c3ccc(NC(C)=O)cc3)CC2)cc(OC)c1O", "Potency": "inconclusive: 100 µM [inhibitor, single point]"}, {"smiles": "c1ccc2c(c1)ncn2Cc1nnc2sc(-c3ccc4c(c3)OCO4)nn12", "Potency": "inconclusive: 15.8 µM [inhibitor, partial curve, poor fit]"}, {"smiles": "CN(CCCCOc1ccc(F)cc1)Cc1ccccc1", "Potency": "inconclusive: 14.1 µM [inhibitor, full curve, poor fit]"}, {"smiles": "O=c1c2c([N+](=O)[O-])cc([N+](=O)[O-])cc2sn1Cc1ccccc1", "Potency": "inconclusive: 1.41 µM [inhibitor, full curve, poor fit]"}, {"smiles": "CCc1noc(C)c1C(=O)N1CCN(S(=O)(=O)c2ccc(Br)cc2)CC1", "Potency": "inactive"}, {"smiles": "Cc1ccc(C(=O)Nc2nnc(NC(=S)Nc3ccccc3)s2)cc1", "Potency": "inactive"}, {"smiles": "O=C(NCCc1ccccc1)NC1CCCCC1", "Potency": "inactive"}, {"smiles": "O=C(NCCCN1CCOCC1)c1ccccc1", "Potency": "inconclusive: 14.1 µM [inhibitor, partial curve, poor fit]"}, {"smiles": "Cc1ccc2c(=O)cc(C(=O)Nc3ccc(S(=O)(=O)Nc4onc(C)c4C)cc3)oc2c1", "Potency": "inactive"}, {"smiles": "CCOC(=O)Cc1csc(SCC(=O)NC2CCS(=O)(=O)C2)n1", "note": "(stereo not given)", "Potency": "inactive"}, {"smiles": "O=[N+]([O-])c1ccccc1-c1ccc(CN2CCN(c3ccccc3)CC2)o1", "Potency": "inconclusive: 39.8 µM [inhibitor, partial curve]"}, {"smiles": "Cc1cc(Cl)cc(Cl)c1OCCOCCN(C)C", "Potency": "inconclusive: 11.2 µM [inhibitor, partial curve, poor fit]"}, {"smiles": "Cc1cc(C)cc(NC(=O)C2CCN(c3nccs3)CC2)c1", "Potency": "inconclusive: 31.6 µM [inhibitor, partial curve, poor fit]"}, {"smiles": "O=C(Nc1ccc(N2CCCC2)cc1)c1cccc(F)c1", "Potency": "inconclusive: 28.2 µM [inhibitor, partial curve, poor fit]"}, {"smiles": "NC(=O)c1ccc(NC(=O)COC(=O)c2cc3c(s2)CCC3)cc1", "Potency": "inconclusive: 79.4 µM [inhibitor, single point]"}, {"smiles": "CC(c1ccc(O)cc1)(c1ccc(O)cc1)c1ccc(CCBr)cc1", "Potency": "inactive"}, {"smiles": "COc1ccc(CNc2oc(COc3cccc(C)c3)nc2C#N)cc1", "Potency": "inconclusive: 20 µM [inhibitor, partial curve, poor fit]"}, {"smiles": "COc1ccc(C)cc1NC(=O)C1CCCN(S(=O)(=O)c2ccc3c(c2)oc(=O)n3C)C1", "note": "(stereo not given)", "Potency": "inactive"}, {"smiles": "CSc1ccc(S(=O)(=O)Nc2ccc(OCC(=O)N3CCOCC3)cc2)cc1", "Potency": "inactive"}, {"smiles": "CCOC(=O)c1c(N2C(=O)Nc3cc(Cl)c(Cl)cc3N2O)sc2c1CCCCC2", "Potency": "inconclusive: 17.8 µM [inhibitor, partial curve, poor fit]"}, {"smiles": "O=C(NC(=S)Nc1ccc(S(=O)(=O)Nc2nccs2)cc1)c1ccccc1F", "Potency": "inconclusive: 35.5 µM [inhibitor, full curve]"}, {"smiles": "Cn1cc2cc(NC(N)=S)ccc2n1", "Potency": "inactive"}, {"smiles": "COc1cc2c(cc1OC)C(C)N(C(=O)C(NC(=O)c1ccccc1)C(C)C)CC2", "note": "(stereo not given)", "Potency": "inactive"}, {"smiles": "Cc1ccc(S(=O)(=O)n2c([N+](=O)[O-])cnc2C)c(C)c1C", "Potency": "inconclusive: 39.8 µM [inhibitor, single point]"}, {"smiles": "Cc1ccccc1N1CCN(C(=S)c2ccc(-c3ccc([N+](=O)[O-])cc3)o2)CC1", "Potency": "inconclusive: 14.1 µM [inhibitor, full curve]"}, {"smiles": "CCCSc1cc(NCCOC(C)=O)c([N+](=O)[O-])c2nonc12", "Potency": "inactive"}, {"smiles": "O=C(c1ccc(F)cc1)N1CCN(Cc2ccccc2Br)CC1", "Potency": "inconclusive: 31.6 µM [inhibitor, partial curve]"}, {"smiles": "CCCCCCCCn1c(N2CCN(c3cccc(Cl)c3)CC2)nc2c1c(=O)[nH]c(=O)n2C", "Potency": "inconclusive: 25.1 µM [inhibitor, partial curve]"}, {"smiles": "O=C(CCSCCC(=O)NCc1ccco1)NCc1ccco1", "Potency": "inconclusive: 89.1 µM [inhibitor, single point]"}, {"smiles": "CCOC(=O)c1cccc(NS(=O)(=O)c2c(C)nc3sc(C)cn3c2=O)c1", "Potency": "inactive"}, {"smiles": "Cc1ccc(OCCCN2C(=O)C(=O)c3cccc(C)c32)cc1", "Potency": "inconclusive: 15.8 µM [inhibitor, partial curve, poor fit]"}, {"smiles": "CN1CCN(c2ccc(S(=O)(=O)N3CCCCC3)cc2[N+](=O)[O-])CC1", "Potency": "inactive"}, {"smiles": "CCCCOCC(O)CN1CCN(C(C)=O)CC1", "note": "(stereo not given)", "Potency": "inconclusive: 79.4 µM [inhibitor, partial curve]"}, {"smiles": "CN(C(=O)Cc1c[nH]c2ccccc12)C(C(=O)Nc1ccc2c(c1)OCO2)c1ccccc1", "note": "(stereo not given)", "Potency": "inconclusive: 56.2 µM [inhibitor, single point]"}, {"smiles": "Cc1c(NC(=O)c2cccnc2C(=O)O)cccc1C(=O)O", "Potency": "inconclusive: 12.6 µM [inhibitor, full curve]"}, {"smiles": "CCCN(C(=O)c1nn(-c2ccc(C)cc2)c(=O)c2c1c1ccccc1n2C)c1ccccc1C", "Potency": "inconclusive: 89.1 µM [inhibitor, single point]"}, {"smiles": "NC(=S)NNc1c(F)c(F)c(F)c(F)c1F", "Potency": "inconclusive: 39.8 µM [inhibitor, full curve]"}, {"smiles": "COc1ccc(O)c(C(=O)c2cnc3onc(C(C)C)c3c2)c1", "Potency": "inconclusive: 39.8 µM [inhibitor, partial curve, poor fit]"}, {"smiles": "CCc1ccc(Sc2cc(C(=O)NCCCN3CCCC(C)C3)c3ccccc3n2)cc1", "note": "(stereo not given)", "Potency": "inactive"}, {"smiles": "CNc1nc(N/N=C/c2ccc([N+](=O)[O-])cc2)nc(Nc2ccccc2)n1", "Potency": "inconclusive: 39.8 µM [inhibitor, single point]"}, {"smiles": "CC(C)OC(=O)CC(=O)CSc1nc2c(cc1C#N)CCC2", "Potency": "inactive"}, {"smiles": "CCOc1ccccc1CN(CCc1ccc2c(c1)OCO2)Cc1cc(OC)c(OC)cc1OC", "Potency": "inconclusive: 14.1 µM [inhibitor, full curve, poor fit]"}, {"smiles": "CCOC(=O)Cc1cnc(NC(=O)Cn2nnc(-c3ccc(OCC)cc3)n2)s1", "Potency": "inactive"}, {"smiles": "COc1ccc2c(c1)OC[C@H]1[C@H]2N2C(=O)CNC(=O)[C@@]2(C)[C@H]1c1ccccc1", "Potency": "inconclusive: 89.1 µM [inhibitor, single point]"}, {"smiles": "Cc1ccc(OCCCN2CCOCC2)cc1", "Potency": "inconclusive: 22.4 µM [inhibitor, full curve]"}, {"smiles": "Cc1ccc(-n2nc(CO)c(C(=O)NCCO)n2)cc1", "Potency": "inactive"}, {"smiles": "COc1cc(CNc2ccc(N3CCOCC3)cc2)cc(Br)c1OC", "Potency": "inconclusive: 28.2 µM [inhibitor, partial curve]"}, {"smiles": "COc1ccc(N/N=C2/CCCCC2=O)cc1", "Potency": "inconclusive: 79.4 µM [inhibitor, single point]"}, {"smiles": "COc1ccc(OCc2nnc(SCC(=O)N(C)Cc3ccccc3)n2N)cc1", "Potency": "inconclusive: 44.7 µM [inhibitor, single point]"}, {"smiles": "CCN(c1ccccc1)S(=O)(=O)c1nnc(NC(=O)COc2ccccc2F)s1", "Potency": "inactive"}, {"smiles": "COc1c(Br)cc(Br)cc1/C=N/n1c(C)nnc1C", "Potency": "inconclusive: 39.8 µM [inhibitor, single point]"}, {"smiles": "Cc1[nH][nH]c(=O)c1C(c1c(C)[nH][nH]c1=O)c1cn(Cc2ccccc2Cl)c2ccccc12", "Potency": "inconclusive: 28.2 µM [inhibitor, full curve]"}, {"smiles": "CCc1cccc(NC(=O)c2ccc3c(=O)n4nc(Nc5ccccc5OC)sc4nc3c2)c1", "Potency": "inactive"}, {"smiles": "COc1cccc(C(=O)NC(=S)Nc2ccc(Cl)cc2C(=O)O)c1", "Potency": "inconclusive: 31.6 µM [inhibitor, full curve]"}, {"smiles": "CCCc1nnc(NC(=O)CS(=O)(=O)c2ccccc2)s1", "Potency": "inconclusive: 70.8 µM [inhibitor, partial curve, poor fit]"}, {"smiles": "COc1ccc2[nH]c(=O)c(CNc3ccccc3)cc2c1", "Potency": "inactive"}, {"smiles": "CCCC(C(=O)O)N1C(=O)/C(=C/c2cccn2C)SC1=S", "note": "(stereo not given)", "Potency": "inactive"}, {"smiles": "COc1ccc(CN2CCN(Cc3cccc(Oc4ccccc4)c3)CC2)c(OC)c1OC", "Potency": "active: 25.1 µM"}, {"smiles": "CSc1ccc(C(=S)N2CCCC2)cc1", "Potency": "inconclusive: 17.8 µM [inhibitor, full curve]"}, {"smiles": "CCN1CCN(c2cc(N3CCN(C(=O)c4ccco4)CC3)c3c4c(onc24)-c2ccccc2C3=O)CC1", "Potency": "inconclusive: 22.4 µM [inhibitor, single point]"}, {"smiles": "COc1ccc(Br)cc1CN1CCN(C(=O)c2cccc(F)c2)CC1", "Potency": "inconclusive: 15.8 µM [inhibitor, full curve, poor fit]"}, {"smiles": "O=S(=O)(O)c1cc(O)c(N=Nc2ccc(O)cc2O)c2ccccc12", "Potency": "inconclusive: 12.6 µM [inhibitor, partial curve, poor fit]"}, {"smiles": "COc1ccccc1NS(=O)(=O)c1cc(N)ccc1N1CCCC1", "Potency": "active: 14.1 µM"}, {"smiles": "Clc1ccc(Cl)c(OCCCCN2CCCCC2)c1", "Potency": "inconclusive: 89.1 µM [inhibitor, single point]"}, {"smiles": "CCC(=O)NC(c1ccc(N(C)C)cc1)c1c(O)ccc2ccccc12", "note": "(stereo not given)", "Potency": "inconclusive: 44.7 µM [inhibitor, partial curve]"}, {"smiles": "Cc1ccc(N2CCN(C(=O)C3CCN(c4ncnc5c4nc4n5CCCCC4)CC3)CC2)c(C)c1", "Potency": "inactive"}, {"smiles": "CCOCCCn1c(SC(C(=O)Nc2cc(C)ccc2C)c2ccccc2)nnc1-c1ccc(Cl)cc1", "note": "(stereo not given)", "Potency": "inactive"}]}]}
